Source: PubChem BioAssay AID1240 (Sanford-Burnham Center for Chemical Genomics, 2008)
In all, about 50,000 compounds went through this assay and about 800 (1.6%) showed an effect of 50% or more. The list shows a part of the results.

target: Bcl-2-like protein 10 (Homo sapiens) (UniProt Q9HD36); test: Phenotype converters, Bcl-B/TR3 peptide binding displacement, primary biochemical FP (AID 1240); settings: GST-Bcl-B / FITC-TR3 peptide fluorescence polarization; stronger effect = higher value; compound at 3.75 mg/L;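 note: 0% = Bcl-B with tracer peptide and DMSO and 100% = tracer peptide lacking Bcl-B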
Chain of UniProt Q9HD36 (Q9HD36 whole entry, looked up): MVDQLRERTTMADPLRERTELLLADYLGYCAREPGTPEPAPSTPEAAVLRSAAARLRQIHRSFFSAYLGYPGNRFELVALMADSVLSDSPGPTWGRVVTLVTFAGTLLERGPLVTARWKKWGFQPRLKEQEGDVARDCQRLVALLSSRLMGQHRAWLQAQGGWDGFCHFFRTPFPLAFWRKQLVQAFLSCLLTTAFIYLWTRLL

| SMILES | displacement |
| --- | --- |
| Cc1ccccc1NC(=O)c1c(NC(=O)C(C)(C)C)sc2c1CCC(C)C2 (stereo not drawn) | -5.3% |
| CCOc1ccc(N2C(=O)NC(=O)/C(=C\C=C\c3ccccc3)C2=O)cc1 | 0.6% |
| C=CCNC(=O)CN(c1ccc(Br)cc1)S(C)(=O)=O | 17.2% |
| Cc1cc(C)c2oc(-c3ccc(NC(=O)c4cc5ccccc5o4)cc3O)nc2c1 | -13.4% |
| O=C(CSc1nnc2c(n1)[nH]c1ccccc12)N1c2ccccc2Sc2ccccc21 | -4.4% |
| O=C(CSc1ncnc2nc[nH]c12)C12CC3CC(CC(C3)C1)C2 | -27.5% |
| CCOc1ccc(C(=O)Nc2ccc(CC)cc2)cc1Br | 3.2% |
| O=S(=O)(/N=C(/Nc1ccccc1)c1ccccc1)c1ccccc1 | 13.3% |
| O=C(O)c1ccccc1-c1ccccc1C(=O)Nc1ccccn1 | 6.6% |
| COc1ccc(C2(CNC(=O)/C=C/c3ccco3)CCCC2)cc1OC | 3.6% |
| COc1ccccc1-n1c(O)c(C=Nc2ccccc2Cl)c(=O)[nH]c1=O | 1.2% |
| C=CCC1(O)CC(c2ccc(C)cc2)NC(c2ccc(C)cc2)C1C (stereo not drawn) | -4.3% |
| COc1ccccc1Nc1nc(C)c([N+](=O)[O-])c(Nc2ccccc2OC)n1 | 8.3% |
| COc1ccc(Cl)cc1NC(=O)Cc1ccc(Br)cc1 | 1.3% |
| N#CC(C#N)=Cc1ccc(-c2cc(Cl)ccc2Cl)o1 | 93.5% |
| COc1ccc2oc(=O)c(C(=O)Nn3cnnc3)cc2c1 | 21.8% |
| CS(=O)(=O)c1ccc2nc(NC(=O)C3CCCCC3)sc2c1 | -14.9% |
| O=C(O)CCCN1C(=O)/C(=C/c2cn(-c3ccccc3)nc2-c2cccc([N+](=O)[O-])c2)SC1=S | 14.5% |
| COc1ccc(N/C(C)=C/C(=O)c2ccc(Cl)cc2)c(OC)c1 | 0.8% |
| COc1ccc2[nH]c(C)c(CCC(=O)O)c(=O)c2c1 | -8.9% |
| CCOC(=O)c1c(N=CN(C)C)c2cc([N+](=O)[O-])cnc2n1C | 2.2% |
| Cc1ccc(-c2nc(N/N=C/c3ccc(N(C)C)cc3)c3ccccc3n2)cc1 | 9.4% |
| COc1ccc(OC)c(C2C3=C(CC(C)(C)CC3=O)OC3=C2C(=O)CC(C)(C)C3)c1 | 5.4% |

| SMILES | displacement |
| --- | --- |
| CC(C)Oc1ccc(C2CC(=O)N(c3cccc(Br)c3)C2=O)cc1 (stereo not drawn) | -6.6% |
| CCOc1cc(OCC)cc(C(=O)Nc2ccc(C)cc2[N+](=O)[O-])c1 | 12.1% |
| COc1ccc(OC)c(NC(=O)CN(c2cc(OC)ccc2OC)S(C)(=O)=O)c1 | 13.6% |
| Cc1oc2ccc(OCc3ccc(Br)cc3)cc2c1C(=O)O | 10.8% |
| Cc1cccc(C(C)C)c1NC(=O)COc1ccc(Cl)cc1Cl | 13.3% |
| O=C(NCCC(CN1CCOCC1)([N+](=O)[O-])[N+](=O)[O-])c1ccccc1 | -2.1% |
| COc1ccc(C2=C(/C=C3\SC(=S)NC3=O)C(c3ccccc3)c3ccccc3O2)cc1OC (stereo not drawn) | -2.6% |
| CC(=O)Nc1ccc(-c2cc(NC(C)=O)n(C)n2)cc1 | -13.5% |
| CCOC(=O)C1=C(NC(=O)CC)Oc2ccc3ccccc3c2C1c1ccccc1 (stereo not drawn) | -5.1% |
| CCSc1nnc(NC(=O)c2ccc(Br)o2)s1 | 11% |
| COc1cc(OC)c(OC)cc1/C=N/NC(=O)CSc1nc2ccccc2[nH]1 | 0.1% |
| COc1ccc(C)cc1N(CC(=O)O)S(C)(=O)=O | 0.9% |
| CC(C)(C)c1cnc(NC(=O)c2ccccc2O)s1 | 5% |
| O=C1C(=O)c2ccccc2C(O)=C1c1ccc([N+](=O)[O-])cc1 | 9.7% |
| COc1ccc(N2C(=O)NC(=O)/C(=C/c3cccn3-c3cccc([N+](=O)[O-])c3)C2=O)cc1 | -4% |
| O=[N+]([O-])c1ccc(S(=O)(=O)N2CCCCCC2)cc1 | -2.3% |
| COc1cc(O)c(C(=O)c2ccccc2)cc1S(=O)(=O)O | -11.1% |
| COCc1c(-c2ccccc2)c2cc([N+](=O)[O-])ccc2n1C | -6.8% |
| O=C(Nc1ccc2c(c1)OCCO2)c1ccc(Br)cc1 | -0.2% |
| CCOc1cc(C=O)cc(Br)c1OCc1ccccc1Cl | -11.4% |
| CCN(CC)S(=O)(=O)c1cc(C(N)=O)ccc1C | -7.1% |
| O=C(/C=C/c1cccc([N+](=O)[O-])c1)Nc1cc(Cl)ccc1Cl | 3.4% |
| CC(=O)c1ccc(NC(=S)NC(NC(=O)C(c2ccccc2)c2ccccc2)C(Cl)(Cl)Cl)cc1 (stereo not drawn) | 21.3% |

| SMILES | displacement |
| --- | --- |
| CCOC(=O)C1=C(O)/C(=C\c2ccc(F)cc2)N=C1C | 5.2% |
| CC1(C)CC(=O)C2=C(C1)OC1=C(C(=O)CC(C)(C)C1)C2c1cccc(O)c1 | -8.5% |
| CCN1C(=O)/C(=C\c2ccc(-c3ccc(C(=O)O)cc3)o2)N(CC)C1=S | -28.4% |
| CCOC(=O)c1sc(NC(=O)CCc2ccccc2)nc1C | 1.8% |
| COc1cccc(/C=C2/SC(=O)N(CNc3ccc(I)cc3)C2=O)c1 | -3.8% |
| CCOC(=O)C1=C(O)/C(=C/N(C)C)SC1=Nc1cccc2ccccc12 | 6.8% |
| C/C(=N\NC(=O)c1cccnc1)c1ccc2ccccc2c1 | 5.8% |
| COc1cc(C=C2C(=O)NC(=O)NC2=O)ccc1OC(C)C | 11.8% |
| O=C(CSc1nc2ccccc2s1)Nc1ncccn1 | 57.1% |
| O=C1/C(=C/c2ccccc2OCc2ccc([N+](=O)[O-])cc2)SC(=S)N1c1ccccc1 | 12.7% |
| CC(=O)c1cccc(NC(=O)c2ccc(N(Cc3ccc(Cl)cc3)S(C)(=O)=O)cc2)c1 | 24.6% |
| COC(=O)c1ccc(OCC(O)CN2CCOCC2)cc1 (stereo not drawn) | -9.7% |
| O=C(CCN1C(=O)/C(=C/c2ccc(F)cc2)SC1=S)Nc1ccc(F)c(Cl)c1 | 14.1% |
| Cc1ccc2nsnc2c1NC(=O)c1cccc(Cl)c1 | 0.8% |
| O=C1c2ccccc2C(=O)N1c1ccc(-c2nc3ccccc3c(=O)o2)cc1 | -7.1% |
| CC1(C)CC2(C=CC(=O)C=C2)C(SCc2ccccc2)=N1 | -4.1% |
| COc1ccc(N2CC(C(=O)N/N=C/c3c[nH]c4ccccc34)CC2=O)cc1 (stereo not drawn) | -3.6% |
| Cc1cccc(NC(=O)c2c(C)c(-c3ccccc3)nc3ccccc23)c1C | -4.7% |
| c1cncc(CN2CCN(Cc3cccc4ccccc34)CC2)c1 | 6.3% |
| COc1cc(/C=C2\NC(=S)NC2=O)ccc1OCc1c(C)no[n+]1[O-] | -3.6% |
| Cc1cc2nc(-c3cc(NC(=O)c4cccc([N+](=O)[O-])c4)ccc3Cl)oc2cc1C | -2.7% |
| COc1cc(C2Nc3ccccc3NC3=C2C(=O)CC(c2ccccc2)C3)cc(OC)c1O (stereo not drawn) | 5.9% |
